Measured values: the supplement of paper PMC12230231
± gives the standard deviation of the averaged measurements. Restriction of a single-cycle SIVsab GFP reporter by TRIM5α v1-loop variants in CRFK cells. Human variants: read share among cells still uninfected after two challenges over input, higher = gained restriction. Rhesus variants: share among infected cells over input, higher = lost restriction. Reporter dose not given per row. No active / inactive call per row; the paper calls a change when both replicates lie above its controls (mean + 2 SD of stop or wild-type variants, or the top frameshift score). Residues outside the varied loop are taken from Swiss-Prot. The paper reads the human single-substitution scores as noise; they and the rhesus combinations repeat poorly (rank correlation 0.3 to 0.4), indel scores repeat only for the top variants, rhesus substitutions well (0.9).

These sequences were tested on SIVsab (simian immunodeficiency virus of sabaeus monkeys), single-cycle GFP reporter, in CRFK cells (assay: enrichment among uninfected cells over input (fold); higher = stronger restriction). Conditions: library: human / rhesus combinations.
Method: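 Pools of CRFK cells expressing variants of the TRIM5α v1 loop were challenged with the single-cycle reporter, sorted by GFP and sequenced; mean of two replicates.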

Row | Sequence | enrichment
1 | MASGILVNVKEEVTCPICLELLTQPLSLDCGHSFCQACLTANHKKSMLDKGESSCPVCRISYQPENIRPNRHVANIVEKLREVKLSPEGQKVDHCARHGEKLLLFCQEDGKVICWLCERSQEHRGHHTFLTEEVAREYQVKLQAALEMLRQKQQEAEELEADIREEKASWKTQIQYDKTNVLADFEQLRDILDWEESNELQNLEKEEEDILKSLTNSETEMVQQTQSLRELISDLEHRLQGSVMELLQGVDGVIKRTENVTLKKPETFPKNQRRVFRAPDLKGMLEVFRELTDVRRYWVDVTVAPNNISCAVISEDKRQVSSPKPQIIYGARGTRFPSFVNFNYCTGILGSQSITSGKHYWEVDVSKKTAWILGVCAGFQPDAMCNIEKNENYQPKYGYWVIGLEEGVKCSAFQDSSFHTPSVPFIVPLSVIICPDRVGVFLDYEACTVSFFNITNHGFLIYKFSHCSFSQPVFPYLNPRKCGVPMTLCSPSS [human TRIM5α, 330-340 = GARGTRFPSFV] | 0.00146 ± 0.00053
2 | MASGILVNVKEEVTCPICLELLTQPLSLDCGHSFCQACLTANHKKSMLDKGESSCPVCRISYQPENIRPNRHVANIVEKLREVKLSPEGQKVDHCARHGEKLLLFCQEDGKVICWLCERSQEHRGHHTFLTEEVAREYQVKLQAALEMLRQKQQEAEELEADIREEKASWKTQIQYDKTNVLADFEQLRDILDWEESNELQNLEKEEEDILKSLTNSETEMVQQTQSLRELISDLEHRLQGSVMELLQGVDGVIKRTENVTLKKPETFPKNQRRVFRAPDLKGMLEVFRELTDVRRYWVDVTVAPNNISCAVISEDKRQVSSPKPQIIYGARGTLFPTLTNFNYCTGILGSQSITSGKHYWEVDVSKKTAWILGVCAGFQPDAMCNIEKNENYQPKYGYWVIGLEEGVKCSAFQDSSFHTPSVPFIVPLSVIICPDRVGVFLDYEACTVSFFNITNHGFLIYKFSHCSFSQPVFPYLNPRKCGVPMTLCSPSS [human TRIM5α, 330-340 = GARGTLFPTLT] | 0.00571 ± 0.004
3 | MASGILVNVKEEVTCPICLELLTQPLSLDCGHSFCQACLTANHKKSMLDKGESSCPVCRISYQPENIRPNRHVANIVEKLREVKLSPEGQKVDHCARHGEKLLLFCQEDGKVICWLCERSQEHRGHHTFLTEEVAREYQVKLQAALEMLRQKQQEAEELEADIREEKASWKTQIQYDKTNVLADFEQLRDILDWEESNELQNLEKEEEDILKSLTNSETEMVQQTQSLRELISDLEHRLQGSVMELLQGVDGVIKRTENVTLKKPETFPKNQRRVFRAPDLKGMLEVFRELTDVRRYWVDVTVAPNNISCAVISEDKRQVSSPKPQIIYGARGTLFTFQTLTNFNYCTGILGSQSITSGKHYWEVDVSKKTAWILGVCAGFQPDAMCNIEKNENYQPKYGYWVIGLEEGVKCSAFQDSSFHTPSVPFIVPLSVIICPDRVGVFLDYEACTVSFFNITNHGFLIYKFSHCSFSQPVFPYLNPRKCGVPMTLCSPSS [human TRIM5α, 330-340 = GARGTLFTFQTLT] | 0.11 ± 0.11
4 | MASGILVNVKEEVTCPICLELLTQPLSLDCGHSFCQACLTANHKKSMLDKGESSCPVCRISYQPENIRPNRHVANIVEKLREVKLSPEGQKVDHCARHGEKLLLFCQEDGKVICWLCERSQEHRGHHTFLTEEVAREYQVKLQAALEMLRQKQQEAEELEADIREEKASWKTQIQYDKTNVLADFEQLRDILDWEESNELQNLEKEEEDILKSLTNSETEMVQQTQSLRELISDLEHRLQGSVMELLQGVDGVIKRTENVTLKKPETFPKNQRRVFRAPDLKGMLEVFRELTDVRRYWVDVTVAPNNISCAVISEDKRQVSSPKPQIIYQARGTLFQSFVNFNYCTGILGSQSITSGKHYWEVDVSKKTAWILGVCAGFQPDAMCNIEKNENYQPKYGYWVIGLEEGVKCSAFQDSSFHTPSVPFIVPLSVIICPDRVGVFLDYEACTVSFFNITNHGFLIYKFSHCSFSQPVFPYLNPRKCGVPMTLCSPSS [human TRIM5α, 330-340 = QARGTLFQSFV] | 0.00353 ± 0.0011
5 | MASGILVNVKEEVTCPICLELLTQPLSLDCGHSFCQACLTANHKKSMLDKGESSCPVCRISYQPENIRPNRHVANIVEKLREVKLSPEGQKVDHCARHGEKLLLFCQEDGKVICWLCERSQEHRGHHTFLTEEVAREYQVKLQAALEMLRQKQQEAEELEADIREEKASWKTQIQYDKTNVLADFEQLRDILDWEESNELQNLEKEEEDILKSLTNSETEMVQQTQSLRELISDLEHRLQGSVMELLQGVDGVIKRTENVTLKKPETFPKNQRRVFRAPDLKGMLEVFRELTDVRRYWVDVTVAPNNISCAVISEDKRQVSSPKPQIIYQARGTLFQTFVNFNYCTGILGSQSITSGKHYWEVDVSKKTAWILGVCAGFQPDAMCNIEKNENYQPKYGYWVIGLEEGVKCSAFQDSSFHTPSVPFIVPLSVIICPDRVGVFLDYEACTVSFFNITNHGFLIYKFSHCSFSQPVFPYLNPRKCGVPMTLCSPSS [human TRIM5α, 330-340 = QARGTLFQTFV] | 1.46 ± 1.7
6 | MASGILVNVKEEVTCPICLELLTQPLSLDCGHSFCQACLTANHKKSMLDKGESSCPVCRISYQPENIRPNRHVANIVEKLREVKLSPEGQKVDHCARHGEKLLLFCQEDGKVICWLCERSQEHRGHHTFLTEEVAREYQVKLQAALEMLRQKQQEAEELEADIREEKASWKTQIQYDKTNVLADFEQLRDILDWEESNELQNLEKEEEDILKSLTNSETEMVQQTQSLRELISDLEHRLQGSVMELLQGVDGVIKRTENVTLKKPETFPKNQRRVFRAPDLKGMLEVFRELTDVRRYWVDVTVAPNNISCAVISEDKRQVSSPKPQIIYGARGTRYTFQSLVNFNYCTGILGSQSITSGKHYWEVDVSKKTAWILGVCAGFQPDAMCNIEKNENYQPKYGYWVIGLEEGVKCSAFQDSSFHTPSVPFIVPLSVIICPDRVGVFLDYEACTVSFFNITNHGFLIYKFSHCSFSQPVFPYLNPRKCGVPMTLCSPSS [human TRIM5α, 330-340 = GARGTRYTFQSLV] | 0.0704 ± 0.018
7 | MASGILVNVKEEVTCPICLELLTQPLSLDCGHSFCQACLTANHKKSMLDKGESSCPVCRISYQPENIRPNRHVANIVEKLREVKLSPEGQKVDHCARHGEKLLLFCQEDGKVICWLCERSQEHRGHHTFLTEEVAREYQVKLQAALEMLRQKQQEAEELEADIREEKASWKTQIQYDKTNVLADFEQLRDILDWEESNELQNLEKEEEDILKSLTNSETEMVQQTQSLRELISDLEHRLQGSVMELLQGVDGVIKRTENVTLKKPETFPKNQRRVFRAPDLKGMLEVFRELTDVRRYWVDVTVAPNNISCAVISEDKRQVSSPKPQIIYQAPGTLYTFQTFVNFNYCTGILGSQSITSGKHYWEVDVSKKTAWILGVCAGFQPDAMCNIEKNENYQPKYGYWVIGLEEGVKCSAFQDSSFHTPSVPFIVPLSVIICPDRVGVFLDYEACTVSFFNITNHGFLIYKFSHCSFSQPVFPYLNPRKCGVPMTLCSPSS [human TRIM5α, 330-340 = QAPGTLYTFQTFV] | 0.101 ± 0.073
8 | MASGILVNVKEEVTCPICLELLTQPLSLDCGHSFCQACLTANHKKSMLDKGESSCPVCRISYQPENIRPNRHVANIVEKLREVKLSPEGQKVDHCARHGEKLLLFCQEDGKVICWLCERSQEHRGHHTFLTEEVAREYQVKLQAALEMLRQKQQEAEELEADIREEKASWKTQIQYDKTNVLADFEQLRDILDWEESNELQNLEKEEEDILKSLTNSETEMVQQTQSLRELISDLEHRLQGSVMELLQGVDGVIKRTENVTLKKPETFPKNQRRVFRAPDLKGMLEVFRELTDVRRYWVDVTVAPNNISCAVISEDKRQVSSPKPQIIYQAPGTLFTFQSLVNFNYCTGILGSQSITSGKHYWEVDVSKKTAWILGVCAGFQPDAMCNIEKNENYQPKYGYWVIGLEEGVKCSAFQDSSFHTPSVPFIVPLSVIICPDRVGVFLDYEACTVSFFNITNHGFLIYKFSHCSFSQPVFPYLNPRKCGVPMTLCSPSS [human TRIM5α, 330-340 = QAPGTLFTFQSLV] | 0.0934 ± 0.021
9 | MASGILVNVKEEVTCPICLELLTQPLSLDCGHSFCQACLTANHKKSMLDKGESSCPVCRISYQPENIRPNRHVANIVEKLREVKLSPEGQKVDHCARHGEKLLLFCQEDGKVICWLCERSQEHRGHHTFLTEEVAREYQVKLQAALEMLRQKQQEAEELEADIREEKASWKTQIQYDKTNVLADFEQLRDILDWEESNELQNLEKEEEDILKSLTNSETEMVQQTQSLRELISDLEHRLQGSVMELLQGVDGVIKRTENVTLKKPETFPKNQRRVFRAPDLKGMLEVFRELTDVRRYWVDVTVAPNNISCAVISEDKRQVSSPKPQIIYGAPGTLYTFPTLVNFNYCTGILGSQSITSGKHYWEVDVSKKTAWILGVCAGFQPDAMCNIEKNENYQPKYGYWVIGLEEGVKCSAFQDSSFHTPSVPFIVPLSVIICPDRVGVFLDYEACTVSFFNITNHGFLIYKFSHCSFSQPVFPYLNPRKCGVPMTLCSPSS [human TRIM5α, 330-340 = GAPGTLYTFPTLV] | 0.0435 ± 0.061

Same assay, conditions: library: insertions and deletions

Row | Sequence | enrichment
10 | MASGILVNVKEEVTCPICLELLTQPLSLDCGHSFCQACLTANHKKSMLDKGESSCPVCRISYQPENIRPNRHVANIVEKLREVKLSPEGQKVDHCARHGEKLLLFCQEDGKVICWLCERSQEHRGHHTFLTEEVAREYQVKLQAALEMLRQKQQEAEELEADIREEKASWKTQIQYDKTNVLADFEQLRDILDWEESNELQNLEKEEEDILKSLTNSETEMVQQTQSLRELISDLEHRLQGSVMELLQGVDGVIKRTENVTLKKPETFPKNQRRVFRAPDLKGMLEVFRELTDVRRYWVDVTVAPNNISCAVISEDKRQVSSPKPQIIYGIYGARGTRYQTFVNFNYCTGILGSQSITSGKHYWEVDVSKKTAWILGVCAGFQPDAMCNIEKNENYQPKYGYWVIGLEEGVKCSAFQDSSFHTPSVPFIVPLSVIICPDRVGVFLDYEACTVSFFNITNHGFLIYKFSHCSFSQPVFPYLNPRKCGVPMTLCSPSS [human TRIM5α, 3-codon duplication at 328] | 0.914 ± 0.87
11 | MASGILVNVKEEVTCPICLELLTQPLSLDCGHSFCQACLTANHKKSMLDKGESSCPVCRISYQPENIRPNRHVANIVEKLREVKLSPEGQKVDHCARHGEKLLLFCQEDGKVICWLCERSQEHRGHHTFLTEEVAREYQVKLQAALEMLRQKQQEAEELEADIREEKASWKTQIQYDKTNVLADFEQLRDILDWEESNELQNLEKEEEDILKSLTNSETEMVQQTQSLRELISDLEHRLQGSVMELLQGVDGVIKRTENVTLKKPETFPKNQRRVFRAPDLKGMLEVFRELTDVRRYWVDVTVAPNNISCAVISEDKRQVSSPKPQIIYGARGTRNYCTGILGSQSITSGKHYWEVDVSKKTAWILGVCAGFQPDAMCNIEKNENYQPKYGYWVIGLEEGVKCSAFQDSSFHTPSVPFIVPLSVIICPDRVGVFLDYEACTVSFFNITNHGFLIYKFSHCSFSQPVFPYLNPRKCGVPMTLCSPSS [human TRIM5α, 7-codon deletion at 336] | 1.41 ± 0.99
12 | MASGILVNVKEEVTCPICLELLTQPLSLDCGHSFCQACLTANHKKSMLDKGESSCPVCRISYQPENIRPNRHVANIVEKLREVKLSPEGQKVDHCARHGEKLLLFCQEDGKVICWLCERSQEHRGHHTFLTEEVAREYQVKLQAALEMLRQKQQEAEELEADIREEKASWKTQIQYDKTNVLADFEQLRDILDWEESNELQNLEKEEEDILKSLTNSETEMVQQTQSLRELISDLEHRLQGSVMELLQGVDGVIKRTENVTLKKPETFPKNQRRVFRAPDLKGMLEVFRELTDVRRYWVDVTVAPNNISCAVISEDKRQVSSPKPQIIYGARGTRYQTFVNFNYCTGINYCTGILGSQSITSGKHYWEVDVSKKTAWILGVCAGFQPDAMCNIEKNENYQPKYGYWVIGLEEGVKCSAFQDSSFHTPSVPFIVPLSVIICPDRVGVFLDYEACTVSFFNITNHGFLIYKFSHCSFSQPVFPYLNPRKCGVPMTLCSPSS [human TRIM5α, 6-codon duplication at 343] | 2.12 ± 2.8
